Assay results as given in patent US20230287084A1 (35PHARMA, published 2023).

T1: activin A (UniProt P08476 311-426)
T1 sequence (looked up): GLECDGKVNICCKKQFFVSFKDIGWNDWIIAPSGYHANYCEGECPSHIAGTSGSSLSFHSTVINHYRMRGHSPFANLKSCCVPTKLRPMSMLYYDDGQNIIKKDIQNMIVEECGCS

T2: activin B (UniProt P09529 293-407)
T2 sequence (looked up): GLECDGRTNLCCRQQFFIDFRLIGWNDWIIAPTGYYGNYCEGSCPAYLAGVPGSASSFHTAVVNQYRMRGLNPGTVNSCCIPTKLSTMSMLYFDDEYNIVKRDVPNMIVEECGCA

T3: GDF-8 (UniProt O14793 267-375)
T3 sequence (looked up): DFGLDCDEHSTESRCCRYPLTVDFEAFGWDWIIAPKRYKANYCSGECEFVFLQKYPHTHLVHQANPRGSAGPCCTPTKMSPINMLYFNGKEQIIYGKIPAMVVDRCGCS

T4: GDF-11 (UniProt O95390 299-407)
T4 sequence (looked up): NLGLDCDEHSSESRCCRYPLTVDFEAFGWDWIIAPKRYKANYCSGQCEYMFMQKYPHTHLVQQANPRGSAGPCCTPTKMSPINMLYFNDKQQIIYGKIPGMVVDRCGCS

T5: BMP-9 (UniProt Q9UK05 320-429)
T5 sequence (looked up): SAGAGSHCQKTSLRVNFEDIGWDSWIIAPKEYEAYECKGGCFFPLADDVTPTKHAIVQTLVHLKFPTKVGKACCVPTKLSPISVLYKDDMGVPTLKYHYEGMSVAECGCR

T6: BMP-10 (UniProt O95393 317-424)
T6 sequence (looked up): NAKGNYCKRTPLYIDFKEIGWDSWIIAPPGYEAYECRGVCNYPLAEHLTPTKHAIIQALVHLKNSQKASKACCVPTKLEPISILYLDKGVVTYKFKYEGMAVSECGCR

B1: P1218 (hActRIIB - F58Q, 6aa linker, IgG1 FcDL) (Fc fusion)
chain: ETRECIYYNANWELERTNQSGLERCEGEQDKRLHCYASWRNSSGTIELVKKGCWLDDQNCYDRQECVATEENPQVYFCCCEGNFCNERFTHLPEAGGPEVTYEPPPTGGGG[omitted - human IgG1 Fc and a few adjoining residues]
B2: P1219 (hActRIIB - F58Q, 10aa linker, IgG1 FcDL) (Fc fusion)
chain: ETRECIYYNANWELERTNQSGLERCEGEQDKRLHCYASWRNSSGTIELVKKGCWLDDQNCYDRQECVATEENPQVYFCCCEGNFCNERFTHLPEAGGPEVTYEPPPTGGGGSGGG[omitted - human IgG1 Fc and a few adjoining residues]
B3: P1220 (hActRIIB - F58Q, 19aa linker, IgG1 FcDL) (Fc fusion)
chain: ETRECIYYNANWELERTNQSGLERCEGEQDKRLHCYASWRNSSGTIELVKKGCWLDDQNCYDRQECVATEENPQVYFCCCEGNFCNERFTHLPEAGGPEVTYEPPPTGGGGSGGGGSGGGGSGG[omitted - human IgG1 Fc and a few adjoining residues]
B4: P120 (hActRIIB - D57E, 3aa linker, IgG1 FcEM) (Fc fusion)
chain: ETRECIYYNANWELERTNQSGLERCEGEQDKRLHCYASWRNSSGTIELVKKGCWLDEFNCYDRQECVATEENPQVYFCCCEGNFCNERFTHLPEAGGPEVTYEPPPTG[omitted - human IgG1 Fc and a few adjoining residues]
B5: P121 (hActRIIB - F58E, 3aa linker, IgG1 FcEM) (Fc fusion)
chain: ETRECIYYNANWELERTNQSGLERCEGEQDKRLHCYASWRNSSGTIELVKKGCWLDDENCYDRQECVATEENPQVYFCCCEGNFCNERFTHLPEAGGPEVTYEPPPTG[omitted - human IgG1 Fc and a few adjoining residues]
B6: P122 (hActRIIB - Q29Y, 3aa linker, IgG1 FcEM) (Fc fusion)
chain: ETRECIYYNANWELERTNQSGLERCEGEYDKRLHCYASWRNSSGTIELVKKGCWLDDFNCYDRQECVATEENPQVYFCCCEGNFCNERFTHLPEAGGPEVTYEPPPTG[omitted - human IgG1 Fc and a few adjoining residues]
B7: P123 (hActRIIB - D30Q, 3aa linker, IgG1 FcEM) (Fc fusion)
chain: ETRECIYYNANWELERTNQSGLERCEGEQQKRLHCYASWRNSSGTIELVKKGCWLDDFNCYDRQECVATEENPQVYFCCCEGNFCNERFTHLPEAGGPEVTYEPPPTG[omitted - human IgG1 Fc and a few adjoining residues]
B8: P125 (hActRIIB - S38R, 3aa linker, IgG1 FcEM) (Fc fusion)
chain: ETRECIYYNANWELERTNQSGLERCEGEQDKRLHCYARWRNSSGTIELVKKGCWLDDFNCYDRQECVATEENPQVYFCCCEGNFCNERFTHLPEAGGPEVTYEPPPTG[omitted - human IgG1 Fc and a few adjoining residues]
B9: P126 (hActRIIB - V75Q, 3aa linker, IgG1 FcEM) (Fc fusion)
chain: ETRECIYYNANWELERTNQSGLERCEGEQDKRLHCYASWRNSSGTIELVKKGCWLDDFNCYDRQECVATEENPQQYFCCCEGNFCNERFTHLPEAGGPEVTYEPPPTG[omitted - human IgG1 Fc and a few adjoining residues]
B10: P127 (hActRIIB - F77D, 3aa linker, IgG1 FcEM) (Fc fusion)
chain: ETRECIYYNANWELERTNQSGLERCEGEQDKRLHCYASWRNSSGTIELVKKGCWLDDFNCYDRQECVATEENPQVYDCCCEGNFCNERFTHLPEAGGPEVTYEPPPTG[omitted - human IgG1 Fc and a few adjoining residues]

The binders below were run against T1, activin A (assay: cell-based or functional assay).

Row | Avg IC50, activin A neutralization (HEK293 TGFβ-reporter) [nM] | Binder
1 | 1.1 | B1
2 | 0.78 | B2
3 | 0.54 | B3
4 | > 1000 | B4
5 | 1.3 | B5
6 | 2.4 | B6
7 | 5 | B7
8 | > 1000 | B8
9 | > 1000 | B9
10 | > 1000 | B10

The binders below were run against T2, activin B (assay: cell-based or functional assay).

Row | Avg IC50, activin B neutralization (HEK293 TGFβ-reporter) [nM] | Binder
11 | > 1000 | B4
12 | 2.5 | B5
13 | 2.5 | B6
14 | 2.8 | B7
15 | > 1000 | B8
16 | > 1000 | B9
17 | > 1000 | B10

The binders below were run against T3, GDF-8 (assay: cell-based or functional assay).

Row | Avg IC50, GDF-8 neutralization (HEK293 TGFβ-reporter) [nM] | Binder
18 | 0.8 | B1
19 | 0.72 | B2
20 | 0.55 | B3
21 | > 1000 | B4
22 | 0.29 | B5
23 | 0.62 | B6
24 | 1.1 | B7
25 | > 1000 | B8
26 | 65 | B9
27 | > 1000 | B10

What follows are binders tested against T4, GDF-11 (assay: cell-based or functional assay).

Row | Avg IC50, GDF-11 neutralization (HEK293 TGFβ-reporter) [nM] | Binder
28 | > 1000 | B4
29 | 0.4 | B5
30 | 0.71 | B6
31 | 1.2 | B7
32 | > 1000 | B8
33 | 23 | B9
34 | > 1000 | B10

The binders below were run against T5, BMP-9 (assay: cell-based or functional assay).

Row | Average IC50, BMP-9 neutralization (HepG2 BMP-reporter) [nM] | Binder
35 | 101 | B1
36 | 59 | B2
37 | > 1000 | B4
38 | 868 | B5
39 | 2.7 | B6
40 | 8.1 | B7
41 | > 1000 | B8
42 | > 1000 | B9
43 | > 1000 | B10

Each binder was assayed against T6, BMP-10 (assay: cell-based or functional assay).

Row | Average IC50, BMP-10 neutralization (HepG2 BMP-reporter) [nM] | Binder
44 | > 1000 | B4
45 | 1 | B5
46 | 2.7 | B6
47 | 3.9 | B7
48 | > 1000 | B8
49 | > 1000 | B9
50 | > 1000 | B10
